# Test results from paper PMC4336329 (PLoS ONE, 2015).
# The campaign covered roughly 310,000 compounds. About 2,200 (0.71%) showed an effect of 50% or more. Effects have a minus sign here. This is one part of the list.
# Target: human ether-à-go-go-related gene (hERG) potassium channel (human, UniProt Q12809)
# Assay: primary screen, population patch clamp on CHO cells stably expressing hERG
# Chain of human ether-à-go-go-related gene (hERG) potassium channel (Q12809 whole entry, looked up): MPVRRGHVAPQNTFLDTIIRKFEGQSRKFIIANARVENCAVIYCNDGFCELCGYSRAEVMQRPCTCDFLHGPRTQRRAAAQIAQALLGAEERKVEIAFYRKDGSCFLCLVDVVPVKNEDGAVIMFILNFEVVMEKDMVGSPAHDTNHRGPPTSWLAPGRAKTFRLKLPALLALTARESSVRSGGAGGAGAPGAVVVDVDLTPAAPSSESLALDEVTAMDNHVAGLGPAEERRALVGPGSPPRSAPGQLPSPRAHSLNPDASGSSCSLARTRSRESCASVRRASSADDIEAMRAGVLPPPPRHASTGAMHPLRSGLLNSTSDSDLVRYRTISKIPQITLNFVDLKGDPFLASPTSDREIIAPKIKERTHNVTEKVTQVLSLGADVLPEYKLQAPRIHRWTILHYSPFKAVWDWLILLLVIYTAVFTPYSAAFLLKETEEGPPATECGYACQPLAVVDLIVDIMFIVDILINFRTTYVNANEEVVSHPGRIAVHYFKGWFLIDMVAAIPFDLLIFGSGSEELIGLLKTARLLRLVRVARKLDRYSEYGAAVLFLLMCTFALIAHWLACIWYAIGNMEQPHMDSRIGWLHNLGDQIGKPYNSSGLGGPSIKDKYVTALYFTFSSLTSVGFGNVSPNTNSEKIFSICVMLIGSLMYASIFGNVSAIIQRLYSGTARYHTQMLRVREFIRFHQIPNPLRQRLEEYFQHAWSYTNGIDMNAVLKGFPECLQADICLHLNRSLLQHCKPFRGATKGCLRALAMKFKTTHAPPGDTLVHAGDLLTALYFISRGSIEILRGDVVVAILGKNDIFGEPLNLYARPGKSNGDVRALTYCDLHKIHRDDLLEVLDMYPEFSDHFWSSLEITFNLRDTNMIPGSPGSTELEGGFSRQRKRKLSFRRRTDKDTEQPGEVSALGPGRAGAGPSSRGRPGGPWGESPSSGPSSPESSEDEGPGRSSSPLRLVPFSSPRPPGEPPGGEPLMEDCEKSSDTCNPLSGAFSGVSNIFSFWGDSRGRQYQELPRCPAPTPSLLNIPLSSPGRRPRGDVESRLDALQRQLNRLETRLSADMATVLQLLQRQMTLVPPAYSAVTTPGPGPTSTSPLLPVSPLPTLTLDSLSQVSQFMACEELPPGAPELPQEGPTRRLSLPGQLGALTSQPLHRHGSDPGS
row,Structure (SMILES),"hERG current change (%, negative = inhibition) at 1uM [%]"
1,CCCC(=O)Nc1c2c(nn1-c1ccc(OC)cc1)CS(=O)C2 (centres unmarked),11
2,COc1ccc(C(=O)NC(C)c2nnc(SCC(=O)Nc3nc4ccccc4s3)n2C)cc1 (centres unmarked),-4.28
3,CC(C)CN(C(=O)c1ccc(N2CCCC2=O)cc1)c1c(N)n(Cc2ccccc2)c(=O)[nH]c1=O,20.2
4,O=C(CCN1C(=O)C2C3C=CC(C4CC34)C2C1=O)Oc1ccccc1 (centres unmarked),-4.6
5,O=C(C1=NNCC1c1ccccc1)C1OC1c1ccccc1 (centres unmarked),8.77
6,Cc1ccc(SCC(=O)NCc2ccccc2)cc1,12.8
7,CN(C)c1cc[n+](CC(=O)Nc2c(Cl)cc(Cl)cc2Cl)cc1.[Cl-],13.4
8,S=C(c1ccc2c(c1)OCO2)N1CCCCC1,11
9,Cc1ccc(N2C(=O)CC(Sc3cccs3)C2=O)cc1 (centres unmarked),13.2
10,COC(=O)N/N=C/c1c(C)c(C(=O)c2ccc(F)cc2)n2ccccc12,-3.99
11,CCNC(=O)OCc1cn(-c2ccc(Cl)cc2)nn1,17.1
12,COc1ccc(CCNc2ccncn2)cc1OC.Cl,-0.346
13,CCCCCCCCN=Cc1c(O)[nH]c(=O)[nH]c1=O,12.7
14,O=C(NC1CCCC1)C(c1ccncc1)N(Cc1cccs1)C(=O)c1csnn1 (centres unmarked),-4.78
15,CCOC(=O)C1CCCN(C(=O)CS(=O)(=O)Cc2ccccc2)C1 (centres unmarked),11.7
16,CC1(C)Oc2ccc3ccc(=O)oc3c2/C(=N/O)C1=O,20.3
17,CCCc1[nH]c(=O)c(C#N)c2c1CCCC2,20.1
18,COCCn1c(=S)[nH]c2cc(C(=O)N3CCc4ccccc43)ccc2c1=O,16.9
19,S=C(NCC1CCCCC1)Nc1cccnc1,0.642
20,COc1cccc(NC(=O)c2nc(SC)ncc2Cl)c1,14.8
21,CCOC(=O)c1cc(-c2ccccc2)nn1CC1CC(c2ccc(Cl)cc2)=NO1 (centres unmarked),9.53
22,Cc1cc(NC(=O)CN2C(=O)NC(C)(c3ccc(OC(F)F)cc3)C2=O)no1 (centres unmarked),4.51
23,COc1ccccc1CCC(=O)N1CCC(n2nccc2NC(=O)CC(C)C)CC1,11.1

row,Structure (SMILES),"hERG current change (%, negative = inhibition) at 1uM [%]"
1,Nc1ncnc(Nc2ccccn2)c1[N+](=O)[O-],8.1
2,Cc1ccc2cc3cc(C(=O)NC4CCCCC4)oc3nc2c1,14.8
3,C[C@H](NC(=O)c1nc[nH]c1C(=O)NC1CC[NH2+]CC1)C(=O)OC(C)(C)C.[Cl-],16.1
4,CCCN1C(=O)C(NS(=O)(=O)c2ccc(N)cc2)(C(F)(F)F)C(C(=O)OC)=C1C (centres unmarked),8.47
5,O=C(CCn1c(=O)c2sccc2n(Cc2cc(=O)n3ccccc3n2)c1=O)NCc1ccco1,-25.1
6,Cn1c(SCc2nc(-c3cccs3)no2)nnc1C1CCCCC1,2.84
7,COc1ccc(CCNC(=O)CCc2nnc(Cc3ccc4c(c3)OCO4)o2)cc1,6.31
8,COc1ccc2c(c1)OC[C@H]1[C@H]2N2C(=O)CN(Cc3ccc(F)cc3)C(=O)[C@@]2(C)[C@H]1c1ccccc1,9.37
9,O=C(CSc1cnc2ccccc2n1)c1ccc(F)cc1,13.6
10,O=C(NC1CCCCCC1)c1ccc(CS(=O)Cc2cccc(Cl)c2)o1 (centres unmarked),5.33
11,O=C(COC(=O)c1ccc(F)cc1)NCc1ccc(F)cc1,6.68
12,O=C(O)/C(=C\c1cccc(OCc2ccccc2)c1)c1ccc(F)cc1,-0.954
13,Cc1ccc(Cn2c(=S)[nH]c3ccccc3c2=O)cc1,15.4
14,COc1ccc(N2C(=O)CC(Cc3ccccc3OC)C2=O)cc1 (centres unmarked),9.24
15,O=C(OCc1cccc([N+](=O)[O-])c1)c1cc2ccccc2oc1=O,12.5
16,CN1CCN(Cc2c(O)ccc3occ(C(=O)c4ccccc4)c23)CC1,-14.3
17,CN1CCc2c(sc(NC(=O)Cc3ccc(F)cc3)c2C(N)=O)C1.Cl,21.1
18,O=[N+]([O-])c1ccc2[nH]c(O)c(N=NC(=S)Nc3cccnc3)c2c1,10.8
19,O=C(NOC(=O)c1ccccc1)c1ccccc1,11.8
20,c1ccc2nc3c(nc2c1)CCc1nonc1-3,-6.7
21,Cc1nc(SCc2cccc(C(=O)O)c2)nc2c1CCCC2,15
22,COc1ccc2nc(NC(=O)C3CCCN(S(=O)(=O)c4cccc5nsnc45)C3)sc2c1 (centres unmarked),13.2
23,CCN(CC)CCCNC(=O)c1c(O)c2ccccc2n(Cc2ccccc2)c1=O.Cl,-12.3

row,Structure (SMILES),"hERG current change (%, negative = inhibition) at 1uM [%]"
1,CCSc1ncc(/C=N/Nc2ccc([N+](=O)[O-])cc2)n1C,8.28
2,Cc1cc(CN2CCCC(CNC(=O)c3ccc(F)cc3)C2)cc(C)c1O (centres unmarked),-14.5
3,CCOc1ccc(S(=O)(=O)Nc2ccccc2C(=O)NCc2ccco2)cc1,-8.28
4,O=C(c1ccccc1NS(=O)(=O)c1ccccc1[N+](=O)[O-])N1CCOCC1,8.91
5,Cc1ccccc1C(=O)Nc1cc(S(=O)(=O)N2CCCCC2)ccc1N1CCN(C)CC1,3.19
6,Cc1ccccc1NC(=O)CC(=O)Nc1ccccc1C,11.8
7,O=C(Nc1ccccc1N1CCOCC1)c1cccnc1Cl,10.8
8,CC(OC(=O)Cc1ccccc1[N+](=O)[O-])C(=O)Nc1ccc(Cl)cn1 (centres unmarked),4.9
9,Cc1cccc(NC(=O)COc2ccccc2C)n1,11.5
10,O=C(CC1Sc2ncnn2C1=O)Nc1ccccc1 (centres unmarked),0.262
11,COc1ccc(C2=NC(=O)NC2c2ccc(OC)cc2)cc1 (centres unmarked),-4.75
12,CCCCc1nc(SCC(=O)N2CCCC2)c2c(=O)n(C)c(=O)n(C)c2n1,7.93
13,C/C(=N/NC(=O)c1ccc(C)s1)c1cccc(NC(=O)COc2ccc(Cl)cc2C)c1,7.53
14,O=C(CC1OCC2CCCN2C1=O)Nc1ccc([N+](=O)[O-])cc1 (centres unmarked),8.79
15,CCOC(=O)NCc1ccccc1,-5.01
16,COc1ccc(C2CCN(CC(=O)N(C)C)CC2O)cc1 (centres unmarked),26.2
17,COC(=O)c1ccccc1NC1=C/C(=N\S(=O)(=O)c2ccc(C(=O)O)cc2)c2ccccc2C1=O,13.2
18,Cc1ccc(CN2CC(C(=O)Nc3ccccc3N3CCCC3)CC2=O)cc1 (centres unmarked),0.137
19,CCc1c(C)nc(SCC(=O)c2cccs2)c(C#N)c1C,11.9
20,CC1=C(C(=O)Nc2ccccn2)C(c2ccc(Br)cc2)n2ncnc2N1 (centres unmarked),9.18
21,COc1cccc(-c2csc(N3CCN(CC(=O)NNC(=O)c4ccc(Br)cc4)CC3)n2)c1,-2.77
22,CN(C)C(=O)c1cc(C(=O)c2ccc(C(F)(F)F)cc2F)c[nH]1,2.12
23,COc1ccccc1N(C)S(=O)(=O)c1ccc(C(=O)N2CCC(C(N)=O)CC2)cc1,16.2

row,Structure (SMILES),"hERG current change (%, negative = inhibition) at 1uM [%]"
1,CCCN(C#N)c1nc(NCC)nc(NC(C)C)n1,-1.12
2,CCCNC(=O)c1cc(Cl)c(NC(=O)C2=CSCCO2)cc1OC,12.5
3,CC(OC(=O)c1cccc(-n2cnnn2)c1)C(=O)Nc1ccc(F)cc1 (centres unmarked),9.34
4,NC(=O)C1CCN(C(=O)COc2ccc(S(=O)(=O)NC3CCCC3)cc2)CC1,17.7
5,CC(C)CCNC(=O)CN(Cc1ccc(F)cc1)C(=O)CCC(=O)Nc1ccccn1,-6.67
6,O=C(CSc1nccc(=O)[nH]1)N1CCCc2ccccc21,11
7,COc1ccc(OC)c2sc(NNC(=O)COc3ccccc3)nc12,10.1
8,O=C(c1sc2cc(F)ccc2c1Cl)N1CCN(c2ccccc2)CC1,8.99
9,NC(=O)c1ccc(Cn2c(C(=O)c3cc(Cl)c(N)c(Cl)c3)c3ccccc3[n+]2[O-])cc1,3.92
10,CC(=O)Nc1ccc(S(=O)(=O)c2cc(O)ccc2O)cc1,16
11,CCOC(=O)c1c(C)[nH]c(C(=O)Cn2nnc(-c3ccccc3)n2)c1C,7.85
12,CCn1c(SCC(=O)NCc2ccccc2)nc2nc3c(cc2c1=O)CCCC3,-0.499
13,COc1ccc(-c2nnc(SCC(=O)NC3CCCC3)n2C)cc1,12.5
14,COc1ccc(NC(=S)Nc2nc(CC(=O)Nc3ccccc3OC)cs2)cc1,1.25
15,c1cc(CNc2ccc3c(c2)OCO3)ccn1,8.74
16,O=C(Nc1ccccc1C(=O)O)c1cccc(C(=O)Nc2ccccc2C(=O)O)c1,17.9
17,COc1ccc(COC(=O)c2ccc(Cl)c(S(=O)(=O)N3CCOCC3)c2)cc1F,-15.4
18,Cc1ccsc1C1C(C(=O)O)c2ccccc2C(=O)N1C (centres unmarked),12.3
19,COc1cccc(C(=O)Nc2cc(OC)ccc2NC(=O)c2ccco2)c1,14
20,CCOC(=O)c1cccc(NC(=O)C2CCCN(S(=O)(=O)c3c(C)n[nH]c3C)C2)c1 (centres unmarked),14.5
